According to the supplement of paper PMC12217912:
The list shows a part of the results. The full chains were built here from the parent and the listed change. Inactive controls read about 0.05.

B1: TEV protease; numbered along this chain (parent)
chain: MGESLFKGPRDYNPISSSICHLTNESDGHTTSLYGIGFGPFIITNKHLFRRNNGTLVVQSLHGVFKVKDTTTLQQHLVDGRDMIIIRMPKDFPPFPQKLKFREPQREERICLVTTNFQTKSMSSMVSDTSCTFPSGDGIFWKHWIQTKDGQCGSPLVSTRDGFIVGIHSASNFTNTNNYFTSVPKNFMELLTNQEAQQWVSGWRLNADSVLWGGHKVFMVKPEEPFQPVKEATQL

Variants of: B1
Assay: raw area under fraction-flipped curve 0-4 h after induction (AUC4h, not background-subtracted), DNA-recorder readout of cleavage of the substrate (dimensionless); higher = more cleavage of the substrate by the protease variant
Conditions: temperature: 34 °C; time window: 0-4 h after rhamnose induction
Description: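 In vivo DNA recorder in E. coli TOP10(DE3) ΔrhaA at 34 °C. Each TEVp single-site mutant (parent TEVp 0) is paired with a single-site variant of the 7-mer TEVs (canonical ENLYFQ|S). The substrate sits between flexible linkers in a Bxb1-sfGFP-TEVs-SsrA fusion, so cleavage stabilises Bxb1 and speeds flipping of a recombination array, read by NGS. The value is the raw area under the fraction-flipped curve over 0-4 h after rhamnose induction (AUC4h), with ≥20 reads per time point. It is not background-subtracted; inactive controls average about 0.047.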
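Further: Bxb1 expression induced with 0.2% (w/v) L-rhamnose at OD600 near 0.5, cultures sampled hourly, flipped fraction per protease–substrate barcode pair counted by paired-end Illumina sequencing.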

| Variant | area with substrate EALYFQS | area with substrate ECLYFQS | area with substrate EELYFQS | area with substrate EGLYFQS | area with substrate EHLYFQS | area with substrate EILYFQS | area with substrate EMLYFQS | area with substrate EPLYFQS | area with substrate EQLYFQS | area with substrate ERLYFQS | area with substrate ESLYFQS | area with substrate EVLYFQS | area with substrate EWLYFQS | area with substrate EYLYFQS | area with substrate EDLYFQS | area with substrate EKLYFQS | area with substrate EFLYFQS | area with substrate ELLYFQS | area with substrate ETLYFQS |
| --- | --- | --- | --- | --- | --- | --- | --- | --- | --- | --- | --- | --- | --- | --- | --- | --- | --- | --- | --- |
| MGESLFKGPRDYNPISSSICHLTNESDGHTTSLYGIGFGPFIITNKHLFRRNNGTLVVQSLHGVFKVKDTTTLQQHLVDGRDMIIIRMPKDFPPFPQKLKFREPQREERICLVTTNFQTKSMSSMVSDTSCTFPSGDGIFWKHWIQTKDGQCGSPLVSTRDGFIVGIHNASNFTNTNNYFTSVPKNFMELLTNQEAQQWVSGWRLNADSVLWGGHKVFMVKPEEPFQPVKEATQL [S169N] | 0.0574 | 0.0647 | 0.0506 | 0.0614 | 0.062 | 0.0611 | 0.0502 | 0.0534 | 0.0588 | 0.0623 | 0.0638 | 0.0548 | 0.0601 | 0.061 | – | – | – | – | – |
| MGESLFKGPRDYNPISSSICHLTNESDGHTTSLYGIGFGPFIITNKHLFRRNNGTLVVQSLHGVFKVKDTTTLQQHLVDGRDMIIIRMPKDFPPFPQKLKFREPQREERICLVTTNFQTKSMSSMVSDTSCTFPSGDGIFWKHWIQTKDGQCGSPLVSTRDGFIVGIHSAGNFTNTNNYFTSVPKNFMELLTNQEAQQWVSGWRLNADSVLWGGHKVFMVKPEEPFQPVKEATQL [S171G] | 0.0602 | 0.0753 | – | – | – | 0.0547 | 0.0697 | – | – | 0.0725 | – | – | – | – | 0.0756 | – | – | – | – |
| MGESLFKGPRDYNPISSSICHLTNESDGHTTSLYGIGFGPFIITNKHLFRRNNGTLVVQSLHGVFKVKDTTTLQQHLVDGRDMIIIRMPKDFPPFPQKLKFREPQREERICLVTTNFQTKSMSSMVSDTSCTFPSGDGIFWKHWIQTKDGQCGSPLVSTRDGFIVGIHSASNFTNLNNYFTSVPKNFMELLTNQEAQQWVSGWRLNADSVLWGGHKVFMVKPEEPFQPVKEATQL [T176L] | 0.0431 | 0.0727 | 0.0708 | 0.0559 | 0.065 | 0.0684 | 0.0833 | 0.0566 | 0.0606 | – | 0.0518 | 0.0767 | 0.0921 | 0.0848 | – | 0.0753 | – | – | – |
| MGESLFKGPRDYNPISSSICHLTNESDGHTTSLYGIGFGPFIITNKHLFRRNNGTLVVQSLHGVFKVKDTTTLQQHLVDGRDMIIIRMPKDFPPFPQKLKFREPQREERICLVTTNFQTKSMSSMVSDTSCTFPSGDGIFWKHWIQTKDGQCGSPLVSTRDGFIVGIHSASNFTNTVNYFTSVPKNFMELLTNQEAQQWVSGWRLNADSVLWGGHKVFMVKPEEPFQPVKEATQL [N177V] | 0.162 | 0.134 | – | – | – | 0.11 | 0.174 | – | 0.178 | – | 0.196 | 0.124 | 0.132 | 0.146 | 0.177 | – | 0.163 | 0.146 | 0.162 |
| MGESLFKGPRDYNPISSSICHLTNESDGHTTSLYGIGFGPFIITNKHLFRRNNGTLVVQSLHGVFKVKDTTTLQQHLVDGRDMIIIRMPKDFPPFPQKLKFREPQREERICLVTTNFQTKSMSSMVSDTSCTFPSGDGIFWKHWIQTKDGQCGSPLVSTRDGFIVGIHSASNFTNTNNYITSVPKNFMELLTNQEAQQWVSGWRLNADSVLWGGHKVFMVKPEEPFQPVKEATQL [F180I] | 0.0676 | 0.063 | 0.0533 | 0.0536 | – | – | 0.0476 | 0.0727 | 0.0732 | 0.0881 | 0.0668 | 0.0471 | 0.0487 | 0.0477 | 0.0557 | 0.0826 | 0.061 | – | – |
| MGESLFKGPRDYNPISSSICHLTNESDGHTTSLYGIGFGPFIITNKHLFRRNNGTLVVQSLHGVFKVKDTTTLQQHLVDGRDMIIIRMPKDFPPFPQKLKFREPQREERICLVTTNFQTKSMSSMVSDTSCTFPSGDGIFWKHWIQTKDGQCGSPLVSTRDGFIVGIHSASNFTNTNNYFGSVPKNFMELLTNQEAQQWVSGWRLNADSVLWGGHKVFMVKPEEPFQPVKEATQL [T181G] | 0.105 | 0.0973 | 0.0821 | 0.0741 | 0.119 | 0.084 | 0.0989 | 0.0999 | – | 0.081 | 0.0843 | 0.0762 | – | 0.0817 | 0.111 | 0.0814 | – | – | 0.0974 |
| MGESLFKGPRDYNPISSSICHLTNESDGHTTSLYGIGFGPFIITNKHLFRRNNGTLVVQSLHGVFKVKDTTTLQQHLVDGRDMIIIRMPKDFPPFPQKLKFREPQREERICLVTTNFQTKSMSSMVSDTSCTFPSGDGIFWKHWIQTKDGQCGSPLVSTRDGFIVGIHSASNFTNTNNYFTSCPKNFMELLTNQEAQQWVSGWRLNADSVLWGGHKVFMVKPEEPFQPVKEATQL [V183C] | 0.114 | 0.117 | 0.115 | 0.0851 | 0.0638 | 0.0583 | 0.127 | – | – | 0.114 | 0.0951 | 0.107 | 0.0861 | – | 0.138 | 0.124 | 0.116 | – | 0.128 |
| MGESLFKGPRDYNPISSSICHLTNESDGHTTSLYGIGFGPFIITNKHLFRRNNGTLVVQSLHGVFKVKDTTTLQQHLVDGRDMIIIRMPKDFPPFPQKLKFREPQREERICLVTTNFQTKSMSSMVSDTSCTFPSGDGIFWKHWIQTKDGQCGSPLVSTRDGFIVGIHSASNFTNTNNYFTSIPKNFMELLTNQEAQQWVSGWRLNADSVLWGGHKVFMVKPEEPFQPVKEATQL [V183I] | 0.0993 | 0.103 | 0.149 | 0.102 | 0.106 | – | – | – | – | 0.0974 | 0.0923 | 0.0515 | – | – | 0.106 | 0.147 | – | 0.0813 | 0.127 |
| MGESLFKGPRDYNPISSSICHLTNESDGHTTSLYGIGFGPFIITNKHLFRRNNGTLVVQSLHGVFKVKDTTTLQQHLVDGRDMIIIRMPKDFPPFPQKLKFREPQREERICLVTTNFQTKSMSSMVSDTSCTFPSGDGIFWKHWIQTKDGQCGSPLVSTRDGFIVGIHSASNFTNTNNYFTSVPPNFMELLTNQEAQQWVSGWRLNADSVLWGGHKVFMVKPEEPFQPVKEATQL [K185P] | 0.173 | 0.109 | 0.116 | – | 0.123 | – | – | – | 0.136 | 0.15 | – | 0.117 | – | – | 0.0828 | – | – | – | – |
